Results: the supplement of paper PMC4967469
By IC50 is meant the dose at which the fit gives 50% viability; a fit beyond the top or the lowest dose is shown as a bound at that dose. AUC, from the same fit, is the share of area under the viability curve across the 256-fold dose range: 1 means no effect, lower means more sensitive. Any top dose called inferred was derived from the fitted curves, not read from the paper. For some of these results: An entry number marks a drug with two screens in the source, which often give different values.

What was measured:
AKT inhibitor VIII = compound: O=c1[nH]c2ccccc2n1C1CCN(Cc2ccc(-c3[nH]c4cc5ncnc5cc4nc3-c3ccccc3)cc2)CC1 [AKT inhibitor VIII]; experiment: Viability of human cancer cell lines after 72 h of drug (GDSC screen); conditions: top dose inferred
Experimental: (§1)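 Human cancer cell lines in 384-well plates, medium with 10% serum, drug for 72 h over a 256-fold dose range (nine 2-fold or five 4-fold steps up to the top dose). Adherent lines were fixed and stained with the nucleic acid dye Syto60, suspension lines read with resazurin; signal relative to control wells, capped at 0 and 100%. One two-parameter sigmoid per drug and line, fitted in a mixed model over all curves with the slope shared within a line.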

AICAR = compound: NC(=O)c1ncn([C@@H]2O[C@H](CO)[C@@H](O)[C@H]2O)c1N [AICAR]; experiment: as above; conditions: top dose 2000 µM; top dose inferred
Experimental: as §1

[1] = top dose 2.56 µM, screen: GDSC drug entry 171
[2] = top dose 10.24 µM, screen: GDSC drug entry 228

Cell Line | AUC (AKT inhibitor VIII; [1]) | IC50 (AKT inhibitor VIII; [1]) [µM] | AUC (AKT inhibitor VIII; [2]) | IC50 (AKT inhibitor VIII; [2]) [µM] | AUC (AICAR) | IC50 (AICAR) [µM]
H290 (mesothelioma, adherent) | 0.962 | > 2.56 | 0.987 | > 10.2 | 0.859 | 1440
RPMI-7951 (melanoma, adherent) | 0.98 | > 2.56 | 0.906 | > 10.2 | 0.824 | 1140
KYSE-50 (oesophagus, adherent) | 0.928 | > 2.56 | 0.773 | 3.64 | 0.733 | 535
BL-41 (Burkitt lymphoma, suspension) | 0.978 | > 2.56 | 0.672 | 1.69 | 0.695 | 378
DJM-1 (skin, adherent) | 0.972 | > 2.56 | 0.983 | > 10.2 | 0.837 | 1320
NB12 (neuroblastoma, adherent) | 0.918 | > 2.56 | 0.746 | 4.23 | 0.961 | > 2000
NB1 (neuroblastoma, semi-adherent) | 0.974 | > 2.56 | – | – | 0.845 | 1680
P32-ISH (Burkitt lymphoma, suspension) | 0.975 | > 2.56 | 0.909 | 7.9 | 0.886 | 1280
H2373 (mesothelioma, adherent) | 0.965 | > 2.56 | 0.935 | > 10.2 | 0.868 | > 2000
AM-38 (glioma, semi-adherent) | 0.986 | > 2.56 | 0.824 | 6.24 | 0.761 | 724
YKG-1 (glioma, adherent) | 0.833 | 1.69 | 0.927 | > 10.2 | 0.746 | 642
MOLM-13 (acute myeloid leukaemia, suspension) | 0.944 | > 2.56 | 0.35 | 0.253 | 0.579 | 202
L-1236 (Hodgkin lymphoma, suspension) | 0.992 | > 2.56 | 0.954 | > 10.2 | 0.243 | 26.3
NCI-H1869 (lung squamous cell carcinoma, adherent) | 0.985 | > 2.56 | 0.821 | 6.94 | 0.779 | 929
OPM-2 (myeloma, suspension) | 0.983 | > 2.56 | 0.666 | 1.68 | 0.947 | > 2000
MDA-MB-468 (breast, adherent) | 0.889 | > 2.56 | 0.873 | 9.19 | 0.89 | > 2000
DMS-79 (small cell lung carcinoma, suspension) | 0.959 | > 2.56 | 0.914 | > 10.2 | 0.955 | > 2000
BICR78 (head and neck, adherent) | 0.806 | 1.55 | 0.964 | > 10.2 | 0.783 | 984
CGTH-W-1 (thyroid, adherent) | 0.937 | > 2.56 | 0.927 | > 10.2 | 0.9 | > 2000
DND-41 (T-cell leukaemia, suspension) | 0.97 | > 2.56 | 0.52 | 0.721 | 0.699 | 418
TOV-21G (ovary, adherent) | 0.984 | > 2.56 | 0.824 | 6.81 | 0.845 | 1640
JHH-2 (liver, adherent) | 0.971 | > 2.56 | 0.977 | > 10.2 | 0.904 | > 2000
T98G (glioma, adherent) | 0.97 | > 2.56 | 0.972 | > 10.2 | 0.926 | > 2000
MG-63 (osteosarcoma, adherent) | 0.904 | > 2.56 | 0.984 | > 10.2 | 0.845 | 1800
NCI-H1417 (small cell lung carcinoma, suspension) | 0.981 | > 2.56 | 0.861 | > 10.2 | 0.651 | 355

Cell Line | AUC (AKT inhibitor VIII; [1]) | IC50 (AKT inhibitor VIII; [1]) [µM] | AUC (AKT inhibitor VIII; [2]) | IC50 (AKT inhibitor VIII; [2]) [µM] | AUC (AICAR) | IC50 (AICAR) [µM]
OSC-20 (head and neck, adherent) | 0.925 | > 2.56 | 0.939 | > 10.2 | 0.799 | 1180
HDLM-2 (Hodgkin lymphoma, suspension) | 0.968 | > 2.56 | 0.811 | 5.33 | 0.732 | 564
PCI-4B (head and neck, adherent) | 0.844 | 1.69 | 0.904 | > 10.2 | 0.748 | 615
SW982 (soft tissue, adherent) | 0.985 | > 2.56 | 0.925 | > 10.2 | 0.843 | 1490
NCI-H2081 (small cell lung carcinoma, suspension) | 0.985 | > 2.56 | 0.87 | > 10.2 | 0.796 | 1000
PFSK-1 (medulloblastoma, adherent) | 0.984 | > 2.56 | 0.909 | > 10.2 | 0.959 | > 2000
NCI-H1651 (lung adenocarcinoma, adherent) | 0.936 | > 2.56 | 0.987 | > 10.2 | 0.949 | > 2000
T47D (breast, adherent) | 0.695 | 0.765 | 0.509 | 0.684 | 0.691 | 576
SBC-3 (small cell lung carcinoma, adherent) | 0.983 | > 2.56 | 0.887 | 9.66 | 0.985 | > 2000
A431 (skin, adherent) | 0.977 | > 2.56 | 0.809 | 5.07 | 0.859 | 1550
HUTU-80 (digestive system, adherent) | 0.934 | > 2.56 | 0.867 | 6.73 | 0.958 | > 2000
SK-MEL-2 (melanoma, adherent) | 0.972 | > 2.56 | 0.763 | 3.81 | 0.925 | > 2000
TGBC1TKB (biliary tract, adherent) | 0.985 | > 2.56 | 0.979 | > 10.2 | 0.783 | 837
SF268 (glioma, adherent) | 0.934 | > 2.56 | 0.915 | > 10.2 | 0.956 | > 2000
KE-37 (lymphoblastic leukaemia, suspension) | 0.876 | 1.56 | 0.239 | 0.143 | 0.779 | 624
JJN-3 (haematopoietic neoplasm, suspension) | 0.992 | > 2.56 | 0.831 | 4.93 | 0.788 | 711
RPMI-8866 (chronic myeloid leukaemia, suspension) | 0.988 | > 2.56 | 0.933 | > 10.2 | 0.706 | 453
NCI-H226 (lung squamous cell carcinoma, adherent) | 0.982 | > 2.56 | 0.919 | > 10.2 | 0.93 | > 2000
OMC-1 (cervix, adherent) | 0.903 | > 2.56 | 0.884 | > 10.2 | 0.921 | > 2000
TGBC11TKB (stomach, adherent) | 0.991 | > 2.56 | 0.946 | > 10.2 | 0.923 | > 2000
G-292 Clone A141B1 (osteosarcoma, adherent) | 0.974 | > 2.56 | 0.923 | > 10.2 | 0.863 | > 2000
ESS-1 (endometrium, adherent) | 0.982 | > 2.56 | 0.828 | 5.45 | 0.877 | 1660
KASUMI-1 (acute myeloid leukaemia, suspension) | 0.8 | 1.24 | 0.32 | 0.201 | 0.672 | 378
CAL-85-1 (breast, adherent) | 0.887 | > 2.56 | 0.852 | > 10.2 | 0.93 | > 2000
RPMI-8226 (myeloma, suspension) | 0.991 | > 2.56 | 0.83 | 5.3 | 0.522 | 142

Cell Line | AUC (AKT inhibitor VIII; [1]) | IC50 (AKT inhibitor VIII; [1]) [µM] | AUC (AKT inhibitor VIII; [2]) | IC50 (AKT inhibitor VIII; [2]) [µM] | AUC (AICAR) | IC50 (AICAR) [µM]
ROS-50 (B-cell leukaemia, suspension) | 0.971 | > 2.56 | 0.878 | > 10.2 | 0.872 | > 2000
MKN28 (stomach, adherent) | 0.932 | > 2.56 | 0.955 | > 10.2 | 0.774 | 805
SUIT-2 (pancreas, adherent) | 0.922 | > 2.56 | 0.871 | > 10.2 | 0.818 | 1200
NCI-H2052 (mesothelioma, adherent) | 0.979 | > 2.56 | 0.939 | > 10.2 | 0.849 | > 2000
SW1783 (glioma, adherent) | 0.959 | > 2.56 | 0.958 | > 10.2 | 0.935 | > 2000
ACHN (kidney, adherent) | 0.937 | > 2.56 | 0.922 | > 10.2 | 0.791 | 1040
OCI-AML5 (acute myeloid leukaemia, suspension) | 0.924 | > 2.56 | 0.528 | 0.758 | 0.532 | 152
SNB75 (glioma, adherent) | 0.885 | > 2.56 | 0.899 | > 10.2 | 0.847 | > 2000
639-V (bladder, adherent) | 0.954 | > 2.56 | 0.983 | > 10.2 | 0.897 | 1830
DoTc2-4510 (cervix, adherent) | 0.878 | 2.36 | 0.924 | > 10.2 | 0.886 | > 2000
NB17 (neuroblastoma, adherent) | 0.983 | > 2.56 | 0.914 | > 10.2 | 0.908 | > 2000
HCC202 (breast, adherent) | – | – | 0.744 | 4.36 | 0.722 | 696
TOV-112D (ovary, adherent) | 0.909 | > 2.56 | 0.682 | 2.07 | 0.983 | > 2000
SU8686 (pancreas, adherent) | 0.967 | > 2.56 | 0.973 | > 10.2 | 0.903 | > 2000
CP50-MEL-B (melanoma, adherent) | 0.964 | > 2.56 | 0.979 | > 10.2 | 0.966 | > 2000
NCI-H82 (small cell lung carcinoma, suspension) | 0.989 | > 2.56 | 0.952 | > 10.2 | 0.642 | 301
HDQ-P1 (breast, adherent) | 0.956 | > 2.56 | 0.967 | > 10.2 | 0.815 | 1370
Raji (Burkitt lymphoma, suspension) | 0.976 | > 2.56 | 0.943 | > 10.2 | 0.938 | > 2000
H2461 (mesothelioma, adherent) | – | – | 0.931 | > 10.2 | 0.951 | > 2000
RCC-AB (kidney, adherent) | – | – | 0.82 | 8.37 | 0.961 | > 2000
SJRH30 (rhabdomyosarcoma, adherent) | 0.986 | > 2.56 | 0.848 | 8.02 | 0.986 | > 2000
NCI-H2135 (non-small cell lung carcinoma, adherent) | 0.987 | > 2.56 | 0.943 | > 10.2 | 0.99 | > 2000
NCI-H1975 (lung adenocarcinoma, adherent) | 0.869 | > 2.56 | 0.867 | > 10.2 | 0.761 | 808
EoL-1-cell (haematopoietic neoplasm, suspension) | 0.955 | > 2.56 | 0.779 | 3.69 | 0.492 | 119
KU812 (chronic myeloid leukaemia, suspension) | 0.84 | 1.55 | 0.639 | 1.49 | 0.855 | 1370
